Measurements reported in US20220105150A1, “AMPHIPATHIC ALPHA-HELICAL ANTIMICROBIAL PEPTIDES TREAT INFECTIONS BY GRAM-NEGATIVE PATHOGENS” (priority 2019, published 2022).
Part of at least one peptide drawing is inferred or uncertain, most often the ends.

Test system: A. baumannii strain 649
Assay type: cell-based, Acinetobacter baumannii
Conditions: 25% human sera versus no serum
Description: Hemoglobin release was determined spectrophotometrically at 570 nm.
Because only unbound AMP is available to interact with the therapeutic target, the extent of binding between AMPs and serum proteins can have significant effects on efficacy of these drugs. […] This assay estimates the in vivo bioavailability of our AMPs. […] An increase in MIC in the presence of serum is attributed to inhibition of antimicrobial activity due to binding to serum proteins.

CC(=O)N[C@H](CCCCN)C(=O)N[C@H](CC(C)C)C(=O)N[C@@H](CN)C(=O)N[C@H](CO)C(=O)N[C@H](CC(C)C)C(=O)N[C@H](CC(C)C)C(=O)N[C@@H](CN)C(=O)N[C@@H](C(=O)N[C@H](CC(C)C)C(=O)N[C@H](CO)C(=O)N[C@@H](CN)C(=O)N[C@H](C)C(=O)N[C@H](CCCCN)C(=O)N[C@H](C)C(=O)N[C@H](C)C(=O)N[C@H](CCCCN)C(=O)N[C@H](CC(C)C)C(=O)N[C@@H](CN)C(=O)N[C@@H](C(=O)N[C@H](CC(C)C)C(=O)N[C@H](CC(C)C)C(=O)N[C@@H](CN)C(=O)N[C@H](C)C(=O)N[C@H](CC(C)C)C(=O)N[C@H](CO)C(=O)N[C@@H](CN)C(N)=O)[C@H](C)O)[C@H](C)O [D105(Lys^1-6Dap-1), Ac-KL(L-Dap)SLL(L-Dap)TLS(L-Dap)AKAAKL(L-Dap)TLL(L-Dap)ALS(L-Dap)-amide]
fold loss of antimicrobial activity in 25% human sera: 4 fold
